In the supplement of paper PMC6089552:
Hit rate of the full screen: of about 3,200 compounds, about 300 (9.4%) showed activity. Only a part is listed here, and it is no random draw.

System: A673/TR/shEF
Test: cell viability (LOESS-normalised, relative to median of negative controls) (log2 ratio); higher = more viable cells (less compound effect), active = hit call of the paper (over 3 MAD below the median)
Conditions: treatment time: 72 h
How it was run: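 A673/TR/shEF Ewing sarcoma cells were plated at 1,500 per well in 384-well plates and cultured with or without doxycycline, added 24 h before compounds, to induce EWS-FLI1 shRNA knockdown. Library compounds at two or more concentrations, alongside DMSO controls, were applied for three days. Cell viability was measured by CellTiter-Glo luminescence on an Envision reader. Readings were LOESS-corrected per plate, divided by the median of negative controls and log2-transformed, and hits were wells lying at least three median absolute deviations from the median of all screened wells.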

[1] = 0.25 µM, library screen: screen1, EWS-FLI1 expression: high (no doxycycline)
[2] = 0.25 µM, library screen: screen1, EWS-FLI1 expression: low (doxycycline-induced shRNA knockdown)
[3] = 2.5 µM, library screen: screen1, EWS-FLI1 expression: high (no doxycycline)
[4] = 2.5 µM, library screen: screen1, EWS-FLI1 expression: low (doxycycline-induced shRNA knockdown)
[5] = 0.25 µM, library screen: screen2, EWS-FLI1 expression: high (no doxycycline)
[6] = 0.25 µM, library screen: screen2, EWS-FLI1 expression: low (doxycycline-induced shRNA knockdown)
[7] = 2.5 µM, library screen: screen2, EWS-FLI1 expression: high (no doxycycline)
[8] = 2.5 µM, library screen: screen2, EWS-FLI1 expression: low (doxycycline-induced shRNA knockdown)
[9] = 0.103 µM, library screen: screen3, EWS-FLI1 expression: high (no doxycycline)
[10] = 0.308 µM, library screen: screen3, EWS-FLI1 expression: high (no doxycycline)
[11] = 0.926 µM, library screen: screen3, EWS-FLI1 expression: high (no doxycycline)
[12] = 0.926 µM, library screen: screen3, EWS-FLI1 expression: low (doxycycline-induced shRNA knockdown)
[13] = 2.8 µM, library screen: screen3, EWS-FLI1 expression: high (no doxycycline)
[14] = 2.8 µM, library screen: screen3, EWS-FLI1 expression: low (doxycycline-induced shRNA knockdown)
[15] = 8.3 µM, library screen: screen3, EWS-FLI1 expression: high (no doxycycline)
[16] = 8.3 µM, library screen: screen3, EWS-FLI1 expression: low (doxycycline-induced shRNA knockdown)
[17] = 25 µM, library screen: screen3, EWS-FLI1 expression: high (no doxycycline)
[18] = 25 µM, library screen: screen3, EWS-FLI1 expression: low (doxycycline-induced shRNA knockdown)
[19] = 0.103 µM, library screen: screen3, EWS-FLI1 expression: low (doxycycline-induced shRNA knockdown)
[20] = 0.308 µM, library screen: screen3, EWS-FLI1 expression: low (doxycycline-induced shRNA knockdown)

Measured: cell viability (log2)

COc1c(O)cc2c(-c3ccccc3)cc(=O)oc2c1OC
inactive: [1] 0.0942 | [2] 0.0479 | [3] 0.133 | [4] 0.16

CCCCCCCCCCCCCCCC(=O)NCCO
inactive: [5] 0.109 | [6] 0.0709 | [7] 0.0624 | [8] 0.0396

CO[C@@H](C(=O)N1Cc2[nH]nc(NC(=O)c3ccc(N4CCN(C)CC4)cc3)c2C1)c1ccccc1
active: [9] -0.25 | [10] -0.418 | [11] -0.596 | [12] -0.134 | [13] -0.679 | [14] -0.355 | [15] -0.794 | [16] -0.46 | [17] -1.13 | [18] -1.21

CCN(CCO)CCCOc1ccc2c(Nc3cc(CC(=O)Nc4cccc(F)c4)[nH]n3)ncnc2c1
active: [9] -0.49 | [10] -0.395 | [11] -0.452 | [13] -0.473 | [14] -0.112 | [15] -0.446 | [17] -0.681

CC(C)CC(NP(=O)(O)O[C@@H]1O[C@@H](C)[C@H](O)[C@@H](O)[C@H]1O)C(=O)NC(Cc1c[nH]c2ccccc12)C(=O)O (stereo partly drawn)
inactive: [5] 0.0833 | [6] 0.00183 | [7] 0.149 | [8] -0.00437

Cc1cc(=O)n(-c2ccccc2)n1C
inactive: [1] 0.065 | [2] 0.101 | [3] 0.125 | [4] 0.137

N#Cc1c2c(c(Nc3ccc(O)cc3)n3c1nc1ccccc13)CCC2
inactive: [1] 0.0182 | [2] 0.0391 | [3] 0.0659 | [4] 0.0482

N#C/C(=C\c1ccc(O)c(O)c1)C(=O)c1ccc(O)c(O)c1
active: [5] -0.567 | [6] -0.546 | [7] -2.72 | [8] -2.83

COc1cccc(CN2CCN(Cc3c[nH]c4ccccc34)CC2)c1
inactive: [1] 0.11 | [2] 0.105 | [3] 0.138 | [4] 0.0572

NC12CC3CC(CC(C3)C1)C2
inactive: [9] -0.06 | [19] 0.0955 | [1] 0.0786 | [2] 0.0271 | [5] -0.0293 | [6] 0.102 | [10] 0.143 | [20] 0.00388 | [11] 0.109 | [12] 0.0536 | [3] 0.0862 | [4] 0.153 | [7] 0.0621 | [8] 0.12 | [13] 0.0464 | [14] 0.0713 | [15] 0.0902 | [16] 0.067 | [17] 0.0699 | [18] 0.0562

O=C(O)c1cc(O)c2c(c1)[C@@H]([C@H]1c3cc(C(=O)O)cc(O)c3C(=O)c3c(O[C@@H]4O[C@H](CO)[C@@H](O)[C@H](O)[C@H]4O)cccc31)c1cccc(O[C@@H]3O[C@H](CO)[C@@H](O)[C@H](O)[C@H]3O)c1C2=O
inactive: [1] 0.0389 | [2] 0.0283 | [3] 0.0965 | [4] 0.0542

CC1(C2CCCC2)Cc2cc(OCC(=O)O)c(Cl)c(Cl)c2C1=O (stereo not drawn)
inactive: [5] 0.0571 | [6] 0.0595 | [7] 0.163 | [8] 0.131

CO[C@H]1O[C@@H]2O[C@@]3(C)CC[C@H]4[C@H](C)CC[C@@H]([C@H]1C)[C@@]24OO3
inactive: [9] -0.0159 | [19] 0.0141 | [10] 0.079 | [20] 0.077 | [11] 0.0497 | [12] 0.0228 | [13] 0.0263 | [14] 0.0639 | [15] 0.0475 | [16] 0.128 | [17] 0.102 | [18] 0.0938

Cc1ccccc1CN1CCN(Cc2ccco2)CC1
inactive: [1] 0.12 | [2] 0.0129 | [3] 0.0799 | [4] -0.0931

N=C1C=CC(=C(c2ccc(N)cc2)c2ccc(N)cc2)C=C1
active: [1] -0.412 | [2] -0.563 | [3] -3.76 | [4] -3.35

COc1cc2ncc(-c3ccccc3)nc2cc1OC
active: 25 µM, library screen: screen1, EWS-FLI1 expression: high (no doxycycline) -0.157
inactive: 0.025 µM, library screen: screen1, EWS-FLI1 expression: high (no doxycycline) 0.165 | 0.025 µM, library screen: screen1, EWS-FLI1 expression: low (doxycycline-induced shRNA knockdown) -0.00441 | [1] 0.202 | [2] 0.0199 | [5] 0.139 | [6] 0.0671 | [3] -0.0715 | [4] 0.188 | [7] 0.212 | [8] 0.201 | 25 µM, library screen: screen1, EWS-FLI1 expression: low (doxycycline-induced shRNA knockdown) 0.175

OC[C@@H](O)C(O)[C@H](O)CO
inactive: [1] 0.179 | [2] 0.0545 | [3] 0.145 | [4] 0.0215

COc1cc(O)c2c(=O)c(O)c(-c3ccc(O)c(O)c3)oc2c1
inactive: [1] -0.00867 | [2] 0.0259 | [3] 0.0453 | [4] 0.0969
